# According to PMC4336329 (PLoS ONE, 2015):
# The whole screen tested about 310,000 compounds, of which about 2,200 (0.71%) showed an effect of 50% or more. The effect is printed as a negative number. Some of the results follow.
# Molecular target: human ether-à-go-go-related gene (hERG) potassium channel (human, UniProt Q12809)
# Assay: primary screen, population patch clamp on CHO cells stably expressing hERG
# human ether-à-go-go-related gene (hERG) potassium channel, sequence (Q12809 whole entry, looked up): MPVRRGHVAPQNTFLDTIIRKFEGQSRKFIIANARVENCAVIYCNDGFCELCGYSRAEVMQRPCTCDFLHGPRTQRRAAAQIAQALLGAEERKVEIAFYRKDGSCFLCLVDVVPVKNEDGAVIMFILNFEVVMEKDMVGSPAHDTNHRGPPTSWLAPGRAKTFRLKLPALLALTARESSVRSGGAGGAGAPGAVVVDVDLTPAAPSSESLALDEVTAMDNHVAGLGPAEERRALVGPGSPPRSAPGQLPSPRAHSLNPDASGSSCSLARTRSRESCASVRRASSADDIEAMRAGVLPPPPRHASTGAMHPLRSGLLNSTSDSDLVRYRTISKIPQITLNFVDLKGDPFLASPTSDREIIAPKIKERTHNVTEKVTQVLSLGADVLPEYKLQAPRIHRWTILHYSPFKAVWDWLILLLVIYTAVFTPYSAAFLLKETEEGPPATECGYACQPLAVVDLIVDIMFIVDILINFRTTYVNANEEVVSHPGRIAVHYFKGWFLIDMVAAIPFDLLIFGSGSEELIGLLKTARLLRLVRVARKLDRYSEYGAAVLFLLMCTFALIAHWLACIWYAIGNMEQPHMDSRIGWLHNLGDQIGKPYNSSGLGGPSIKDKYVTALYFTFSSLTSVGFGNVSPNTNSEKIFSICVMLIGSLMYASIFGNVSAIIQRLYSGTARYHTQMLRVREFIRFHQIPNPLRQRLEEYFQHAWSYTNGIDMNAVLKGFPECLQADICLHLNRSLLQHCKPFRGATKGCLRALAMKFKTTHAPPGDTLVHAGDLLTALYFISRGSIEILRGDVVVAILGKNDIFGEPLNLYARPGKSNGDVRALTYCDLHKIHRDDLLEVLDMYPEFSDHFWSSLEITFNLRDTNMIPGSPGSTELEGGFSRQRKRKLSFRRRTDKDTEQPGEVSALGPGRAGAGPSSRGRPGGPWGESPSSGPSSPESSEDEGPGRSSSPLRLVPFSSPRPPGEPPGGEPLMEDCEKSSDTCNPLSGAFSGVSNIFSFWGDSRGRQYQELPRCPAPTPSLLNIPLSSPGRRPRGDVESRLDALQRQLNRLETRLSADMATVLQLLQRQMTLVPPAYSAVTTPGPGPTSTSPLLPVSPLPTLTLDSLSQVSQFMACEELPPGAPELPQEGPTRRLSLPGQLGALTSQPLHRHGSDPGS
row,Compound,"hERG current change (%, negative = inhibition) at 1uM"
1,CCOC(=O)N1CCN(C(=O)c2ccccc2-c2ccccc2)CC1,21%
2,COc1ccc(C(=O)CSc2cc(C)nc(SCC(=O)c3ccc(C)cc3)n2)cc1,10.9%
3,CC(C)(C)c1ccc(/C=C/C(=O)O)s1,9.11%
4,Oc1ccc(/C=C/c2ccnc3ccccc23)cc1,13.1%
5,COc1ccc(S(=O)(=O)N2CCC(C(=O)NC3CC3)CC2)cc1,1.71%
6,Cc1ccc(C(=O)OCC(=O)Nc2ccccc2)cc1S(=O)(=O)N1CCCCC1,14.9%
7,COCCCN(C(C)=O)c1nc(-c2ccc(OC)cc2)cs1,-2.34%
8,CCn1c(=O)n(CC)c2cc(S(=O)(=O)N3CCCCC3)c(C)cc21,6.51%
9,N#CC(=C=[N-])c1nc2ccccc2nc1-[n+]1cccc(NC(=O)c2ccc(F)cc2)c1,15.7%
10,Clc1ccc2oc(SCc3cccnc3)nc2c1,12.7%
11,COc1cccc(NC(=O)C(NCC(C)(C)CN(C)C)c2ccccc2)c1.O=C(O)C(=O)O (stereo not drawn),-12.7%
12,Cc1ccc(C(=O)N2CCN(c3ccccn3)CC2)cc1C,2.78%
13,O=C(O)C1C2CCC(O2)C1C(=O)Nc1ccc(Br)cc1F (stereo not drawn),13.5%
14,CC(=O)Nc1ccc(S(=O)(=O)N2CN(c3ccc(C)cc3)c3nc4ccccc4nc32)cc1,15.2%
15,Cc1ccc(S(=O)(=O)N(C)CC(O)Cn2c3ccccc3c3ccccc32)cc1 (stereo not drawn),12.9%
16,CCc1ccc(N2CSC3=C(C#N)C(c4cccs4)CC(=O)N3C2)cc1 (stereo not drawn),5.06%
17,C=CCn1cc(-c2ccc(Cl)cc2)cc(C#N)c1=O,11.1%
18,CCS(=O)(=O)N1CCN(S(=O)(=O)c2ccc(F)cc2)CC1,1.1%
19,CCN(CC(=O)NCc1cccs1)C(=O)COc1cccc(C(F)(F)F)c1,-7.5%
20,O=C(COc1ccc(/C=N/NC(=O)c2ccncc2)cc1)Nc1ccc([N+](=O)[O-])cc1,-2.23%
21,CN(CC(=O)Nc1ccccc1Cl)C(=O)c1ccc(-c2cccc(C(F)(F)F)c2)o1,6.73%

row,Compound,"hERG current change (%, negative = inhibition) at 1uM"
1,COc1ccc(C2C(C#N)=C(N)N(N(C)C)C3=C2C(=O)CC(C)(C)C3)cc1OC (stereo not drawn),6.85%
2,COc1ccccc1C(=O)NC(=S)Nc1ccccc1N1CCCC1,9.11%
3,CCC(=O)N1N=C2C3CCN(CC3)C2C1c1ccc(C)cc1 (stereo not drawn),12.1%
4,COc1cccc(C(=O)N/N=C/c2ccc(Oc3ccc([N+](=O)[O-])cn3)c(OC)c2)c1,2.86%
5,Cc1ccc(-c2nn(-c3ccccc3)cc2/C=N/NS(=O)(=O)c2ccccc2)cc1,11.4%
6,CCCCSc1nc(C)cc(SCC(=O)N/N=C/c2cccc(OC)c2O)n1,4.3%
7,CCn1c(=O)c2c(O)cc(=O)oc2c2ccccc21,17.1%
8,COc1ccc(OC)c(N(CC(=O)N2CCCC2)S(=O)(=O)c2ccc(C)cc2)c1,16.4%
9,Cc1nc(Nc2ccc3c(c2)OCCO3)c2c(C)c(C)sc2n1,-8.61%
10,COc1cc(NC(=O)Cc2cccs2)ccc1-n1cnnn1,15.8%
11,O=C(CNCc1cccc(Cl)c1)N1CCc2ccccc2C1,10.3%
12,Cc1cc(-c2ccco2)n(CC(=O)O)n1,6.85%
13,Nc1ccc(C(=O)N/N=C/c2c[nH]c3ccccc23)cc1,6.84%
14,COCCNC(=O)c1ccccc1NC(=O)CN(c1ccc2c(c1)OCO2)S(C)(=O)=O,-3.04%
15,CC(=O)Nc1ccc(S(=O)(=O)N2CCN(c3cccc(C)c3C)CC2)cc1,11.2%
16,CCOC(=O)C1(Cc2cccc(Cl)c2)CCCN(C(=O)c2cc(CC)on2)C1 (stereo not drawn),18.6%
17,COc1cccc(NC(=O)c2cc(-c3ccc(C)o3)nc3ccccc23)c1,10.1%
18,Cc1nc([N+](=O)[O-])c(Br)n1CC(=O)c1ccc(Br)cc1,-6.05%
19,Cc1ccc(C(=O)N2N=C(CC(C)C)CC2(O)C(F)(F)F)o1 (stereo not drawn),11.4%
20,Cc1nn2cc(-c3ncc(C(F)(F)F)cc3Cl)cnc2c1Br,9.57%
21,Fc1ccccc1/C=C1\CCCC2=C1Nc1nnnn1C2c1ccccc1F (stereo not drawn),4.87%
